# The other results are listed elsewhere or left out.
# B1: MpAFP NterminalRI GFP (Marinomonas primoryensis) (protein)
# chain: MSDNQFPFATLGNAIGFITKLDGSVTVQSIDGQERVLKLGDPIFFGETVLTGGSGSVTIAFVDGTDVVIGGDSIVEMTDEIYNTGDNEDLVADSSSEIDALQNAILAGDDPTLIQDAPAAGNTLADQQRVDVSIERNDNSAQAGFGVDTQSSLPTYGYDTDNGNGGQATEREYSAPSLSRTLNQSPLLEHHHHHH
# Experiments:
# Experiment in all cases: glycan array binding signal (z-score within array); higher = stronger binding
# Conditions in all cases: glycan notation: IUPAC condensed, linker removed
# Gal(a1-3)Gal(b1-4)GlcNAc = target: Gal(a1-3)Gal(b1-4)GlcNAc
# In short: (§1)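 Glycan array binding is given as a within-array Z-score, which can be read as non-binding when negative. The arrays, 3228 of them, came from the Consortium for Functional Glycomics database and were retained only where the protein sequence was available. Z-scores were averaged across arrays of the same protein sequence at different concentrations or buffers and across linkers.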
# [1] = target: Gal(a1-3)Gal(b1-4)GlcNAc(b1-2)Man
# In short: as §1
# [2] = target: Gal(a1-3)Gal(b1-4)GlcNAc(b1-2)Man(a1-3)[Gal(a1-3)Gal(b1-4)GlcNAc(b1-2)Man(a1-6)]Man(b1-4)GlcNAc(b1-4)GlcNAc
# In short: as §1
# [3] = target: Gal(a1-3)Gal(b1-4)GlcNAc(b1-3)GalNAc
# In short: as §1
# [4] = target: Gal(a1-3)Gal(b1-4)GlcNAc(b1-6)GalNAc
# In short: as §1
# [5] = target: Gal(a1-3)Gal(b1-4)[Fuc(a1-3)]GlcNAc
# In short: as §1
# [6] = target: Gal(a1-3)Gal(b1-4)[Fuc(a1-3)]GlcNAc(b1-2)Man(a1-3)[Gal(a1-3)Gal(b1-4)[Fuc(a1-3)]GlcNAc(b1-2)Man(a1-6)]Man(b1-4)GlcNAc(b1-4)GlcNAc
# In short: as §1
# Gal(a1-3)GalNAc = target: Gal(a1-3)GalNAc
# In short: as §1
# [7] = target: Gal(a1-3)[Gal(a1-4)]Gal(b1-4)GlcNAc
# In short: as §1
# [8] = target: Gal(a1-4)Gal(b1-3)GlcNAc(b1-2)Man(a1-3)[Gal(a1-4)Gal(b1-3)GlcNAc(b1-2)Man(a1-6)]Man(b1-4)GlcNAc(b1-4)GlcNAc
# In short: as §1
# Gal(a1-4)Gal(b1-4)Glc = target: Gal(a1-4)Gal(b1-4)Glc
# In short: as §1
# Gal(a1-4)Gal(b1-4)GlcNAc = target: Gal(a1-4)Gal(b1-4)GlcNAc
# In short: as §1
# [9] = target: Gal(a1-4)Gal(b1-4)GlcNAc(b1-2)Man(a1-3)[Gal(a1-4)Gal(b1-4)GlcNAc(b1-2)Man(a1-6)]Man(b1-4)GlcNAc(b1-4)GlcNAc
# In short: as §1
# [10] = target: Gal(a1-4)Gal(b1-4)GlcNAc(b1-3)Gal(b1-4)Glc
# In short: as §1
# Gal(a1-4)GlcNAc = target: Gal(a1-4)GlcNAc
# In short: as §1
# Gal(a1-6)Glc = target: Gal(a1-6)Glc
# In short: as §1
# Gal(b1-2)Gal = target: Gal(b1-2)Gal
# In short: as §1
# Gal(b1-3)Gal = target: Gal(b1-3)Gal
# In short: as §1
# Gal(b1-3)Gal(b1-4)GlcNAc = target: Gal(b1-3)Gal(b1-4)GlcNAc
# In short: as §1
# Gal(b1-3)GalNAc = target: Gal(b1-3)GalNAc
# In short: as §1
# [11] = target: Gal(b1-3)GalNAc(a1-3)[Fuc(a1-2)]Gal(b1-4)Glc
# In short: as §1
# [12] = target: Gal(b1-3)GalNAc(a1-3)[Fuc(a1-2)]Gal(b1-4)GlcNAc
# In short: as §1
# Gal(b1-3)GalNAc(b1-3)Gal = target: Gal(b1-3)GalNAc(b1-3)Gal
# In short: as §1
# [13] = target: Gal(b1-3)GalNAc(b1-3)Gal(a1-4)Gal(b1-4)Glc
# In short: as §1
# [14] = target: Gal(b1-3)GalNAc(b1-4)Gal(b1-4)Glc
# In short: as §1
# [15] = target: Gal(b1-3)GalNAc(b1-4)[Neu5Ac(a2-3)]Gal(b1-4)Glc
# In short: as §1
# Gal(b1-3)GlcNAc = target: Gal(b1-3)GlcNAc
# In short: as §1
# [16] = target: Gal(b1-3)GlcNAc(a1-3)Gal(b1-4)GlcNAc
# In short: as §1
# [17] = target: Gal(b1-3)GlcNAc(a1-6)Gal(b1-4)GlcNAc
# In short: as §1
# Gal(b1-3)GlcNAc(b1-2)Man = target: Gal(b1-3)GlcNAc(b1-2)Man
# In short: as §1
# [18] = target: Gal(b1-3)GlcNAc(b1-2)Man(a1-3)[Gal(b1-3)GlcNAc(b1-2)Man(a1-6)]Man(b1-4)GlcNAc(b1-4)GlcNAc
# In short: as §1
# [19] = target: Gal(b1-3)GlcNAc(b1-2)Man(a1-3)[Gal(b1-3)GlcNAc(b1-2)Man(a1-6)]Man(b1-4)GlcNAc(b1-4)[Fuc(a1-6)]GlcNAc
# In short: as §1
# [20] = target: Gal(b1-3)GlcNAc(b1-2)Man(a1-3)[GlcNAc(b1-4)][Gal(b1-3)GlcNAc(b1-2)Man(a1-6)]Man(b1-4)GlcNAc(b1-4)GlcNAc
# In short: as §1
# [21] = target: Gal(b1-3)GlcNAc(b1-2)[Gal(b1-3)GlcNAc(b1-6)]Man(a1-6)[Gal(b1-3)GlcNAc(b1-2)Man(a1-3)]Man(b1-4)GlcNAc(b1-4)GlcNAc
# In short: as §1
# [22] = target: Gal(b1-3)GlcNAc(b1-3)Gal(b1-3)GlcNAc
# In short: as §1
# [23] = target: Gal(b1-3)GlcNAc(b1-3)Gal(b1-4)Glc
# In short: as §1
# [24] = target: Gal(b1-3)GlcNAc(b1-3)Gal(b1-4)GlcNAc
# In short: as §1
# [25] = target: Gal(b1-3)GlcNAc(b1-3)Gal(b1-4)GlcNAc(b1-2)Man(a1-3)[Gal(b1-3)GlcNAc(b1-3)Gal(b1-4)GlcNAc(b1-2)Man(a1-6)]Man(b1-4)GlcNAc(b1-4)GlcNAc
# In short: as §1
# [26] = target: Gal(b1-3)GlcNAc(b1-3)Gal(b1-4)GlcNAc(b1-2)[Gal(b1-3)GlcNAc(b1-3)Gal(b1-4)GlcNAc(b1-6)]Man(a1-6)[Gal(b1-3)GlcNAc(b1-3)Gal(b1-4)GlcNAc(b1-2)Man(a1-3)]Man(b1-4)GlcNAc(b1-4)[Fuc(a1-6)]GlcNAc
# In short: as §1
# [27] = target: Gal(b1-3)GlcNAc(b1-3)Gal(b1-4)GlcNAc(b1-3)Gal(b1-4)GlcNAc(b1-2)[Gal(b1-3)GlcNAc(b1-3)Gal(b1-4)GlcNAc(b1-3)Gal(b1-4)GlcNAc(b1-6)]Man(a1-6)[Gal(b1-3)GlcNAc(b1-3)Gal(b1-4)GlcNAc(b1-3)Gal(b1-4)GlcNAc(b1-2)Man(a1-3)]Man(b1-4)GlcNAc(b1-4)[Fuc(a1-6)]GlcNAc
# In short: as §1
# [28] = target: Gal(b1-3)GlcNAc(b1-3)Gal(b1-4)GlcNAc(b1-6)[Gal(b1-3)GlcNAc(b1-3)]Gal(b1-4)Glc
# In short: as §1
# [29] = target: Gal(b1-3)GlcNAc(b1-3)Gal(b1-4)[Fuc(a1-3)]GlcNAc
# In short: as §1
# [30] = target: Gal(b1-3)GlcNAc(b1-3)Gal(b1-4)[Fuc(a1-3)]GlcNAc(b1-6)[Gal(b1-3)GlcNAc(b1-3)]Gal(b1-4)Glc
# In short: as §1
# [31] = target: Gal(b1-3)GlcNAc(b1-3)GalNAc
# In short: as §1
# [32] = target: Gal(b1-3)GlcNAc(b1-6)Gal(b1-4)GlcNAc
# In short: as §1
binder,measurement,setting,value
B1,glycan array binding signal (z-score),Gal(a1-3)Gal(b1-4)GlcNAc,-0.58
same,glycan array binding signal (z-score),[1],-0.412
same,glycan array binding signal (z-score),[2],-0.164
same,glycan array binding signal (z-score),[3],-0.507
same,glycan array binding signal (z-score),[4],-0.318
same,glycan array binding signal (z-score),[5],0.036
same,glycan array binding signal (z-score),[6],1.23
same,glycan array binding signal (z-score),Gal(a1-3)GalNAc,-0.159
same,glycan array binding signal (z-score),[7],-0.179
same,glycan array binding signal (z-score),[8],-0.303
same,glycan array binding signal (z-score),Gal(a1-4)Gal(b1-4)Glc,-0.074
same,glycan array binding signal (z-score),Gal(a1-4)Gal(b1-4)GlcNAc,-0.321
same,glycan array binding signal (z-score),[9],-0.131
same,glycan array binding signal (z-score),[10],-0.463
same,glycan array binding signal (z-score),Gal(a1-4)GlcNAc,-0.271
same,glycan array binding signal (z-score),Gal(a1-6)Glc,-0.117
same,glycan array binding signal (z-score),Gal(b1-2)Gal,-0.242
same,glycan array binding signal (z-score),Gal(b1-3)Gal,-0.048
same,glycan array binding signal (z-score),Gal(b1-3)Gal(b1-4)GlcNAc,-0.494
same,glycan array binding signal (z-score),Gal(b1-3)GalNAc,-0.228
same,glycan array binding signal (z-score),[11],-0.422
same,glycan array binding signal (z-score),[12],-0.401
same,glycan array binding signal (z-score),Gal(b1-3)GalNAc(b1-3)Gal,0.049
same,glycan array binding signal (z-score),[13],-0.476
same,glycan array binding signal (z-score),[14],-0.02
same,glycan array binding signal (z-score),[15],-0.464
same,glycan array binding signal (z-score),Gal(b1-3)GlcNAc,-0.134
same,glycan array binding signal (z-score),[16],-0.335
same,glycan array binding signal (z-score),[17],-0.622
same,glycan array binding signal (z-score),Gal(b1-3)GlcNAc(b1-2)Man,-0.267
same,glycan array binding signal (z-score),[18],-0.119
same,glycan array binding signal (z-score),[19],-0.198
same,glycan array binding signal (z-score),[20],0.257
same,glycan array binding signal (z-score),[21],-0.305
same,glycan array binding signal (z-score),[22],-0.424
same,glycan array binding signal (z-score),[23],-0.148
same,glycan array binding signal (z-score),[24],-0.345
same,glycan array binding signal (z-score),[25],-0.321
same,glycan array binding signal (z-score),[26],2
same,glycan array binding signal (z-score),[27],1.05
same,glycan array binding signal (z-score),[28],-0.193
same,glycan array binding signal (z-score),[29],-0.403
same,glycan array binding signal (z-score),[30],-0.275
same,glycan array binding signal (z-score),[31],-0.561
same,glycan array binding signal (z-score),[32],-0.642

# Source: the supplement of paper PMC8728848
